Results are given in words; binding and its absence hold for the method and conditions named. Binding seen in cells or lysates may run through a third protein. Some results given as binding are weak or reduced against the parent protein; the word gives no strength.
Key:
[1] = target: T1, TGFβ type I receptor (TβRI), endogenous, full length (human (endogenous in PC-3U)) (UniProt P36897); test: proximity ligation; brightfield in situ PLA on sections of prostate cancer tissue of patients; endogenous APPL1 and TβRI
T1 sequence: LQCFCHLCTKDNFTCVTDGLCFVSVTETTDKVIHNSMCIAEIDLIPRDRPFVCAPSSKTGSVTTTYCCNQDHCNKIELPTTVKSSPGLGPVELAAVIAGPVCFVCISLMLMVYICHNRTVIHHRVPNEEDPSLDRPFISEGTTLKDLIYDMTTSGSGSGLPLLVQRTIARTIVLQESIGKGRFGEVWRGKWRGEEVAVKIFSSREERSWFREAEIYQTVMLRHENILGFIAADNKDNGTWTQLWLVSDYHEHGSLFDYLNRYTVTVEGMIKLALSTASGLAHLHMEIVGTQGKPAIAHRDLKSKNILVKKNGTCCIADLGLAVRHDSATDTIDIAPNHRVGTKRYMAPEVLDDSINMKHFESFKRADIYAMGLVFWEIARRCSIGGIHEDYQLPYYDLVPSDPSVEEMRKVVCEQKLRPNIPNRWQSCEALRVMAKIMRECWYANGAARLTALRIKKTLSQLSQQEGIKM

[2] = target: T1, TGFβ type I receptor (TβRI), endogenous, full length (human (endogenous in PC-3U)); test: proximity ligation; in situ PLA (Duolink) on PC-3U cells depleted of TRAF6 by siRNA; endogenous APPL1 and TβRI
[3] = target: T1, TGFβ type I receptor (TβRI), endogenous, full length (human (endogenous in PC-3U)); test: proximity ligation; in situ PLA (Duolink) on fixed, permeabilised PC-3U cells treated or not with TGFβ for 30 min; endogenous proteins; immunofluorescence and brightfield
[4] = target: T1, TGFβ type I receptor (TβRI), endogenous, full length (human (endogenous in PC-3U)); test: co-IP; PC-3U whole-cell lysates, IP with TβRI antibody V22, blot for APPL1; endogenous proteins; cells with or without TGFβ, LY294002, wortmannin or SB 505124
[5] = target: T2, APPL1 (endogenous) (human (endogenous in PC-3U)) (UniProt Q9UKG1); test: co-IP; PC-3U whole-cell lysates of cells with TRAF6 knocked down by siRNA, IP with APPL1 antibody, blot for PKCζ
T2 sequence: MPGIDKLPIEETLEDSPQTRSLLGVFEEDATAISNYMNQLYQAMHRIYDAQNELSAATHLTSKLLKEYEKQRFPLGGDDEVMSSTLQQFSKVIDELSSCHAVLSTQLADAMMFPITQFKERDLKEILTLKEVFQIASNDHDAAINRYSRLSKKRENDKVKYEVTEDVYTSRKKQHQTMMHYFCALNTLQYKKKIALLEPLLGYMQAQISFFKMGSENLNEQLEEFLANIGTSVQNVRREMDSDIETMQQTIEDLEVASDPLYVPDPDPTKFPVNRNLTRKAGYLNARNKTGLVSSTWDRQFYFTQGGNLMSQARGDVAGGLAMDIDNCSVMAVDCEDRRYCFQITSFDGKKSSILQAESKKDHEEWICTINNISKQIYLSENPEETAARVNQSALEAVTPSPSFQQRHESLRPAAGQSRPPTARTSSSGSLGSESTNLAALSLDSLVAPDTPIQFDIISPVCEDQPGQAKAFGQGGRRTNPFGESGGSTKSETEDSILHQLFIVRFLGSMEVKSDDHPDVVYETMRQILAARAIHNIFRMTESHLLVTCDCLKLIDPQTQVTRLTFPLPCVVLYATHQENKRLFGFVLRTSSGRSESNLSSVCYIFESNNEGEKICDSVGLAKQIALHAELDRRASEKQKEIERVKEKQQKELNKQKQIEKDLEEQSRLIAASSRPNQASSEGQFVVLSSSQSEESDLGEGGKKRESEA

[6] = target: T2, APPL1 (endogenous) (human (endogenous in PC-3U)); test: proximity ligation; in situ PLA (Duolink) on fixed, permeabilised PC-3U cells treated or not with TGFβ for 30 min; endogenous proteins; immunofluorescence and brightfield
[7] = target: T2, APPL1 (endogenous) (human (endogenous in PC-3U)); test: co-IP; PC-3U whole-cell lysates of cells with TRAF6 knocked down by siRNA, IP with APPL1 antibody, blot for PKCζ; remark: listed apart in the source
[8] = target: T2, APPL1 (endogenous) (human (endogenous in PC-3U)); test: co-IP; PC-3U whole-cell lysates, IP with APPL1 antibody, blot for PKCζ or β-tubulin; endogenous proteins; cells with or without TGFβ, control or TRAF6 siRNA

Binder	binding [1]	binding [2]	binding [3]	binding [4]	binding [5]	binding [6]	binding [7]	binding [8]
APPL1 (endogenous) (protein, UniProt Q9UKG1 1-709) MPGIDKLPIEETLEDSPQTRSLLGVFEEDATAISNYMNQLYQAMHRIYDAQNELSAATHLTSKLLKEYEKQRFPLGGDDEVMSSTLQQFSKVIDELSSCHAVLSTQLADAMMFPITQFKERDLKEILTLKEVFQIASNDHDAAINRYSRLSKKRENDKVKYEVTEDVYTSRKKQHQTMMHYFCALNTLQYKKKIALLEPLLGYMQAQISFFKMGSENLNEQLEEFLANIGTSVQNVRREMDSDIETMQQTIEDLEVASDPLYVPDPDPTKFPVNRNLTRKAGYLNARNKTGLVSSTWDRQFYFTQGGNLMSQARGDVAGGLAMDIDNCSVMAVDCEDRRYCFQITSFDGKKSSILQAESKKDHEEWICTINNISKQIYLSENPEETAARVNQSALEAVTPSPSFQQRHESLRPAAGQSRPPTARTSSSGSLGSESTNLAALSLDSLVAPDTPIQFDIISPVCEDQPGQAKAFGQGGRRTNPFGESGGSTKSETEDSILHQLFIVRFLGSMEVKSDDHPDVVYETMRQILAARAIHNIFRMTESHLLVTCDCLKLIDPQTQVTRLTFPLPCVVLYATHQENKRLFGFVLRTSSGRSESNLSSVCYIFESNNEGEKICDSVGLAKQIALHAELDRRASEKQKEIERVKEKQQKELNKQKQIEKDLEEQSRLIAASSRPNQASSEGQFVVLSSSQSEESDLGEGGKKRESEA	binds	no binding (condition: cells depleted of TRAF6 by siRNA)	binds	binds				
PKCζ (endogenous) (enzyme, UniProt Q05513 1-592) MPSRTGPKMEGSGGRVRLKAHYGGDIFITSVDAATTFEELCEEVRDMCRLHQQHPLTLKWVDSEGDPCTVSSQMELEEAFRLARQCRDEGLIIHVFPSTPEQPGLPCPGEDKSIYRRGARRWRKLYRANGHLFQAKRFNRRAYCGQCSERIWGLARQGYRCINCKLLVHKRCHGLVPLTCRKHMDSVMPSQEPPVDDKNEDADLPSEETDGIAYISSSRKHDSIKDDSEDLKPVIDGMDGIKISQGLGLQDFDLIRVIGRGSYAKVLLVRLKKNDQIYAMKVVKKELVHDDEDIDWVQTEKHVFEQASSNPFLVGLHSCFQTTSRLFLVIEYVNGGDLMFHMQRQRKLPEEHARFYAAEICIALNFLHERGIIYRDLKLDNVLLDADGHIKLTDYGMCKEGLGPGDTTSTFCGTPNYIAPEILRGEEYGFSVDWWALGVLMFEMMAGRSPFDIITDNPDMNTEDYLFQVILEKPIRIPRFLSVKASHVLKGFLNKDPKERLGCRPQTGFSDIKSHAFFRSIDWDLLEKKQALPPFQPQITDDYGLDNFDTQFTSEPVQLTPDDEDAIKRIDQSEFEGFEYINPLLLSTEESV					binds	binds	no binding (condition: knockdown of TRAF6 by siRNA)	binds

From article PMC4807998
